Source: the supplement of paper PMC3334620
Whole data set: some 33,000 sequences, median “E-score (-0.5 to 0.5)” near -0.04, cut for the highest 2% near 0.36. The list shows a part of the results.

Biological target: T1, Hmlalpha2 (UniProt P0CY09)
T1 sequence: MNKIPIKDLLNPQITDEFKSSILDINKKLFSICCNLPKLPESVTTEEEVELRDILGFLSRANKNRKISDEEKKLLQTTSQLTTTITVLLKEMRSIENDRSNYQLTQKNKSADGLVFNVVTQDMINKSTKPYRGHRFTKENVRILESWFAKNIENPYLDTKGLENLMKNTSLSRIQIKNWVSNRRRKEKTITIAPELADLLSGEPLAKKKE
Assay: PBM E-score (8-mer binding enrichment) (E-score (-0.5 to 0.5)); higher = stronger / more preferred TF binding; most listed sequences are background and not binding sites
Conditions: protein concentration: 200 nM; construct: GST-full length
Procedure: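 Universal 'all 10-mer' protein binding microarrays (Agilent AMADID 015681) probed with GST-tagged S. cerevisiae TFs (full-length or DBD) made by in vitro transcription/translation (PURExpress), about 100-200 nM. Bound TF was detected with fluorescent anti-GST. Each ungapped 8-mer (which stands for itself and its reverse complement) is scored by the PBM enrichment score (E-score), a modified Wilcoxon-Mann-Whitney statistic from -0.5 to +0.5, computed with the Universal PBM Analysis Suite. Scale: above 0.35 generally sequence-specific binding.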

Going from CCCATCCA to CAAAGCAA, the “PBM E-score” value rises from -0.0462 to 0.138.

Going from CGAGCGGC to GCCAAACC, the “PBM E-score” value falls from -0.125 to -0.282.

Going from GTGAGACA to ATCCTATC, the “PBM E-score” value rises from -0.267 to -0.177.

Going from AGTCCTTC to ATAGGAAA, the “PBM E-score” value rises from -0.206 to 0.0311.

Going from ATAATTTC to GCTCCTCA, the “PBM E-score” value falls from -0.00586 to -0.383.

Going from AGTCAGTA to TATACTCA, the “PBM E-score” value rises from 0.0664 to 0.203.

First: CCGAAGAA
Second: ACGAACCC
The “PBM E-score” value of the first is lower: -0.226 for the first, -0.164 for the second.

Going from CTCGTATC to AATCACGA, the “PBM E-score” value rises from -0.0652 to -0.00705.

Going from CGGTTTCC to CAACAGTC, the “PBM E-score” value rises from -0.188 to -0.184.

Going from CCCTAGGA to AGGTACAT, the “PBM E-score” value rises from -0.26 to 0.288.

Going from CGTGCATA to TTAGATAA, the “PBM E-score” value falls from 0.086 to -0.0444.

First: TCGGACAA
Second: ATGGTCCA
The “PBM E-score” value of the first is lower: -0.073 for the first, -0.0321 for the second.

First: ATAAGGTG
Second: GACATCGC
The “PBM E-score” value of the first is higher: 0.157 for the first, -0.0415 for the second.

First: CCCCATCC
Second: CACAAAAC
The “PBM E-score” value of the first is lower: -0.192 for the first, 0.225 for the second.

Compared with GAATTATC, ATGTCCGC is lower in “PBM E-score” value: 0.0133 for the first, -0.0726 for the second.

Compared with CTGTCTGA, TCTGTCAA is higher in “PBM E-score” value: -0.162 for the first, 0.0538 for the second.

Compared with TGAGCAAA, TCGATCAA is lower in “PBM E-score” value: 0.11 for the first, -0.00953 for the second.

Compared with AGAACGCA, CAATAACA is higher in “PBM E-score” value: 0.124 for the first, 0.239 for the second.

Compared with CAAGCTGC, CCAAGGAC is lower in “PBM E-score” value: -0.145 for the first, -0.222 for the second.

Compared with AGTGCTAC, AGAATTGC is lower in “PBM E-score” value: 0.0795 for the first, -0.161 for the second.

Going from GCTCATCA to CCTACATC, the “PBM E-score” value falls from -0.0692 to -0.107.

First: ACAGACAC
Second: GCCATCCC
The “PBM E-score” value of the first is higher: 0.0876 for the first, -0.23 for the second.

Going from ACTATTCT to CGTGCTTA, the “PBM E-score” value rises from 0.0244 to 0.19.

First: CAATATAC
Second: CTCGCGTC
The “PBM E-score” value of the first is higher: 0.131 for the first, 0.113 for the second.

Going from ACCGCATA to CCGGCGTC, the “PBM E-score” value falls from 0.0308 to -0.0795.

First: AGTTGACA
Second: ACACCGAT
The “PBM E-score” value of the first is higher: 0.293 for the first, 0.0503 for the second.

Compared with GCGACTCA, GAAAATTA is higher in “PBM E-score” value: -0.134 for the first, 0.253 for the second.

Compared with GGAACAAA, CAGGCTCG is lower in “PBM E-score” value: 0.0948 for the first, -0.0427 for the second.

Going from CTAACTAC to GTCCCAAA, the “PBM E-score” value falls from 0.125 to -0.125.

Compared with TCACGTGA, GTAGGACA is lower in “PBM E-score” value: 0.13 for the first, 0.063 for the second.

Going from CCGACGGA to CATTTGAC, the “PBM E-score” value rises from -0.187 to 0.024.

Compared with ACGGCAAT, CTTGAGCA is lower in “PBM E-score” value: 0.0808 for the first, -0.0765 for the second.

First: CCACGTCG
Second: AGAATCAC
The “PBM E-score” value of the first is lower: -0.134 for the first, -0.0349 for the second.

First: ACAACGGG
Second: GCTTACTA
The “PBM E-score” value of the first is lower: 0.095 for the first, 0.157 for the second.

Compared with ACTCACCG, CCAGGCTA is lower in “PBM E-score” value: -0.103 for the first, -0.281 for the second.

Going from CGACTAGA to CGGAATCC, the “PBM E-score” value falls from -0.0368 to -0.281.

Going from CTCGTGCA to CGCGATAC, the “PBM E-score” value rises from -0.126 to 0.12.

First: AATCCATA
Second: CGTAGGAC
The “PBM E-score” value of the first is higher: 0.00815 for the first, -0.212 for the second.

Going from GACACAAA to CCTTTCTA, the “PBM E-score” value falls from 0.14 to 0.0802.

Going from ACAAGAAA to ACCAGGAC, the “PBM E-score” value falls from 0.207 to 0.0306.

Compared with AGGCGAGA, AGAATGAG is higher in “PBM E-score” value: -0.285 for the first, 0.0137 for the second.

First: ACAGATCG
Second: AAGCCTAG
The “PBM E-score” value of the first is higher: -0.025 for the first, -0.0469 for the second.

First: CTGCACGC
Second: TGAGACCA
The “PBM E-score” value of the first is lower: -0.165 for the first, 0.0612 for the second.
